Results as given in publication PMC4336329 (PLoS ONE, 2015).
The whole screen tested about 310,000 compounds, of which about 14,000 (4.5%) showed an effect of 50% or more. The effect is printed as a negative number. The list shows a part of the results.

molecular target: human ether-à-go-go-related gene (hERG) potassium channel (human, UniProt Q12809); assay: primary screen, population patch clamp on CHO cells stably expressing hERG
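Also: peak tail current of the secondary pulse compared with the same well before compound.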

human ether-à-go-go-related gene (hERG) potassium channel, sequence (Q12809 whole entry, looked up): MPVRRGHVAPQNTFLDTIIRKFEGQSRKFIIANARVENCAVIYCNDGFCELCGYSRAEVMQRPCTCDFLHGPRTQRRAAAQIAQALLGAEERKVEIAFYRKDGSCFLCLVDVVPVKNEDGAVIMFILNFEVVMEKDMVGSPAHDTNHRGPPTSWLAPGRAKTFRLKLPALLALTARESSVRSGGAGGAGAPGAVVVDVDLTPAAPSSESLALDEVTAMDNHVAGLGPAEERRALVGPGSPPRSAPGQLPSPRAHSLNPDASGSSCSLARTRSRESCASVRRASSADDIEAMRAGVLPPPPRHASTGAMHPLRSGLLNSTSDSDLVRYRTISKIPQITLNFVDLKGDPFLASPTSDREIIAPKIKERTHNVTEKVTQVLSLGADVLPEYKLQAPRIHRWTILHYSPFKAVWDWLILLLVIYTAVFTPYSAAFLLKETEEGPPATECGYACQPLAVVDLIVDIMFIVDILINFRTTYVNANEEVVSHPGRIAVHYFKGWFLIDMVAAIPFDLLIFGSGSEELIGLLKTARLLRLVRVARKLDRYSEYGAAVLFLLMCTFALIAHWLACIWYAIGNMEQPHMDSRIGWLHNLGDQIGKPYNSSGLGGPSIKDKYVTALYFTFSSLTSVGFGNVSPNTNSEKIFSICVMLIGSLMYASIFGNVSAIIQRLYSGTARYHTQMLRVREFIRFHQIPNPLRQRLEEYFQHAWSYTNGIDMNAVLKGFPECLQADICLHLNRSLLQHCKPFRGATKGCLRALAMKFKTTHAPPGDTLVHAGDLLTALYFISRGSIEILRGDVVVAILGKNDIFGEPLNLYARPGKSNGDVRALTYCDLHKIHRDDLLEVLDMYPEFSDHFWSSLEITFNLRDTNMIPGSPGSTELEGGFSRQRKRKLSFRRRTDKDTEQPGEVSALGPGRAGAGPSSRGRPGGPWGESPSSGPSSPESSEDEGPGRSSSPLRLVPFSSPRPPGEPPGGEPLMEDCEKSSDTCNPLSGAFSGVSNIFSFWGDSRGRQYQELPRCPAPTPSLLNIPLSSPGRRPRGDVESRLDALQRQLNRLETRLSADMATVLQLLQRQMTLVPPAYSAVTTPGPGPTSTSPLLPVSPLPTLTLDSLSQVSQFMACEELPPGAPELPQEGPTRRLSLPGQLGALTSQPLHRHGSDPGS

SMILES	hERG current change (%, negative = inhibition) at 10uM
Cc1ccc(-c2csc(N3CCC[C@@H]3C(=O)NCCn3c(C(F)(F)F)nc4ccccc43)n2)cc1	6.33%
COc1ccc(S(=O)(=O)Nc2ccc(Cl)cn2)c(C)c1C	12.1%
COc1ccc2c(C)cc3nncn3c2c1	10.4%
O=C(CCCn1c(=O)[nH]c2ccccc2c1=O)N1CCN(c2ccccn2)CC1	5.25%
NS(=O)(=O)c1ccc(CCNC(=O)CN2CCN(c3cccc(Cl)c3)CC2)cc1	-27.6%
CCCCNC(=O)CSc1nc(O)cc(=O)n1C1CCCC1	4.18%
C/C(=N\NC(=O)CSc1nc2nc(C)cc(C)n2n1)c1ccccc1	-15.5%
COc1cc(OC)c(C2C(C#N)=C(C)NC(C)=C2C#N)c(C(=O)O)c1	11.1%
CCOc1ccccc1/C=C(/C#N)C(N)=O	7.14%
C/C=C1\COC(C(=O)NCc2ccccc2)(C(F)(F)F)C=C1C=C(C)C (stereo not drawn)	-1.28%
Cc1cccc(-n2cnc(C(=O)N/N=C/c3ccccc3)c2)n1	1.48%
Cc1cc(C(=O)O)ccc1-c1ccc(/C=C2\SC(=O)N(CC(=O)Nc3ccc4c(c3)OCO4)C2=O)o1	18%
CSc1ccc(/C=N\Nc2nncn2N)cc1.Cl	10.9%
COc1ccc(OCCN(C)CC(=O)Nc2c(C)cccc2C)cc1.O=C(O)C(=O)O	2.96%
CCc1nnc(NC(=O)CN2C(=O)NC3(CC(C)CC(C)(C)C3)C2=O)s1 (stereo not drawn)	7.29%
CCc1ccc2nc(N(CCCN(C)C)C(=O)c3ccc(S(=O)(=O)N4CCCc5ccccc54)cc3)sc2c1.Cl	7.81%
CC(=O)NCCc1nc(-c2ccc(Cl)cc2)no1	10.8%
O=C(COC(=O)c1c2ccccc2cc2ccccc12)Nc1ncc(C(F)(F)F)cc1Cl	6.05%
COc1ccc(-c2nc(C)ncc2-c2ccc(Cl)cc2)c(O)c1	0.00268%

SMILES	hERG current change (%, negative = inhibition) at 10uM
COCc1c(C(=O)OCC(=O)N2c3ccccc3CC2C)oc2ccccc12 (stereo not drawn)	4.17%
Cc1cc(=O)oc2cc(OCC(=O)N3CCN(C(C)c4ccccc4)CC3)c(Cl)cc12 (stereo not drawn)	-35.1%
O=C(NCCCCc1ccccc1)c1ccc(F)cc1	-8.4%
C/C(=N/NC(=O)c1ccc(Br)o1)C(C)C	-1.43%
COc1ccc(C/C(=N\O)c2ccc(OC)cc2)cc1	1.9%
CN(CC(=O)Nc1ccccc1C(F)(F)F)C(=O)CN1C(=O)C2CCCCC2C1=O (stereo not drawn)	9.26%
CCOC(=O)c1c(C)n(C)c2ccc(OC)c(NC(=O)CN3CCC4(CC3)OCCO4)c12	-1.29%
S=C(NCc1cccs1)Nc1ccc(Br)cc1Cl	-2.53%
O=C(c1cc(-c2ccncc2)nc2ccc(Cl)cc12)N1CCN(C(=O)C2CCCO2)CC1 (stereo not drawn)	-9.46%
CCCCC(=O)Nc1nnc(C2=COCCO2)o1	17.3%
CCOC(=O)CC(=O)CSc1nc2ccc(OC)cc2cc1C	29.7%
O=C1SC(SCc2ccccc2Cl)=N/C1=C\c1ccc(C(=O)O)cc1	6.42%
CCOc1ccc(/C=C/C(=O)N(CC)CC(=O)NCc2cccs2)cc1OC	-28.3%
NC(=S)Nc1ccc(Cl)cc1Cl	14%
CS(=O)(=O)c1ccc(Cl)c(NC(=O)CCl)c1	33.7%
OC(CN1CC=C(c2ccccc2)CC1)c1ccccc1 (stereo not drawn)	-33%
O=S(=O)(NCCN1CCOCC1)c1cc(Cl)ccc1Cl	3.34%
Cc1nc(-c2cccnc2)sc1C(=O)N/N=C/c1ccccc1Cl	-75.5%
O=C(CCS(=O)(=O)c1ccccc1)Nc1ccc2c(c1)OCO2	4.28%

SMILES	hERG current change (%, negative = inhibition) at 10uM
CC1Cc2ccccc2N1C(=O)CSc1nnnn1C1CCCC1 (stereo not drawn)	-8.36%
CN1CCN(c2ccc(NC(=O)CSc3ccccc3)cc2F)CC1	-68.4%
Cc1cc(N2CCN(c3ccccc3)CC2)n2c(n1)nc1ccccc12	-68.7%
O=C(COC(=O)CCc1ccccc1)NC12CC3CC(CC(C3)C1)C2	6.43%
COc1ccc(NS(=O)(=O)c2ccc3c(c2)OCCO3)cc1OC	19.3%
CCCCn1c(SCc2c(C)noc2C)nc2cc(S(N)(=O)=O)ccc21	-43.1%
O=C(Nc1nnc(C2=COCCO2)o1)c1ccc(S(=O)(=O)N2CCOCC2)cc1	24.3%
Cc1cc(Br)ccc1OCC(=O)NNC(=O)c1cnccn1	14.1%
CC1CCSP(=O)(Oc2ccccc2)O1 (stereo not drawn)	0.524%
Cc1nc2sc(C(c3cccc(F)c3)N3CCC(O)CC3)c(O)n2n1 (stereo not drawn)	-2.49%
COC(=O)C(NC(=O)c1ccccc1Cl)(Nc1ncc(S(=O)(=O)c2ccc([N+](=O)[O-])cc2)s1)C(F)(F)F (stereo not drawn)	-32.8%
Cc1cc(C)cc(NS(=O)(=O)c2ccc3[nH]cc(C(=O)NCc4ccco4)c(=O)c3c2)c1	-16.6%
CCNC(=S)Nc1cc2oc3ccccc3c2cc1OC	10.7%
COc1ccccc1NC(=O)C/C(N)=N/O	2.67%
CCOCCCNC(=O)Cn1cnc2c(cnn2-c2ccc(F)cc2)c1=O	-5.6%
COc1cc(S(=O)(=O)n2ccc(C)n2)c(OC)cc1Cl	-8.65%
CCN(CC)C(=O)c1sc(NC(=O)C(Sc2ccccc2)c2ccccc2)c(C(=O)OC(C)C)c1C (stereo not drawn)	15.9%
COc1ccc(C)cc1S(=O)(=O)N1CCN(C(=O)c2ncoc2-c2cccc(C)c2)CC1	-25.1%
Cc1cc2c(cc1C)C(c1ccccc1Br)CC(=O)N2 (stereo not drawn)	19.6%
